Reference: PubChem BioAssay AID1454 (National Center for Advancing Translational Sciences (NCATS), 2008)
Several values for one entry are separate records, joined by “and”; a condition that tells them apart may be missing. Identical values can stand only once. Hit rate of the full screen: of about 130,000 compounds, about 550 (0.42%) were called active. Inconclusive means that the source gave no clear call. Such entries were picked first, then a sample of the others. The call rests on the fitted dose curve; in most records, active means well fitted inhibition curve with a large enough effect; inconclusive means small, poorly fitted or top-dose-only effect, or effect the other way; inactive means flat fitted curve, though single readings scatter. Potencies beside an inconclusive call are fits to weak or partial responses and may not hold up.

Test: qHTS Assay for Inhibitors of the ERK Signaling Pathway using a Homogeneous Screening Assay; Stimulation with EGF; further: nearly all actives have a fitted effect of over 55% in size
Details: HEK293-V1b, EGF-stimulated phospho-ERK AlphaScreen
Outline: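 After overnight plating in 1% FBS, HEK293-V1b cells received test compound for half an hour, then a 5 min pulse of EGF (25 nM); ERK phosphorylation in lysates was read by bead-based AlphaScreen.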
Potency means the concentration at half of the fitted maximal effect; tags describe the fitted curve by direction and shape.

SMILES	Potency
O=C(O)CC[C@H](NC(=O)c1ccccc1C(=O)O)C(=O)O	inactive
COC1=C(OC)C(=O)C(CCCCCCCCCCO)=C(C)C1=O	inconclusive: 39.8 µM [inhibitor, single point]
OCC1(CCOc2ccccc2)CCN(CC2=Cc3cc(Cl)ccc3OC2)CC1	inconclusive: 39.8 µM [inhibitor, single point]
Cc1ccc2c(c1)c1c(n2CC(O)CN2CCCCC2C)CCCC1 (stereo not given)	inactive
Cc1ccc(-c2nc(N)sc2-c2ccc(C)cc2)cc1	inconclusive: 17.8 µM [inhibitor, single point]
O=c1c(-c2ccc(F)c(F)c2)nc2cncnc2n1Cc1ccccc1	inconclusive: 39.8 µM [inhibitor, single point]
CSc1cccc(NC(=S)NCCCN2CCN(c3ccc(F)cc3)CC2)c1	inconclusive: 20 µM [inhibitor, partial curve, poor fit]
COc1ccc(-c2nn(-c3ccccc3)cc2/C=C(\C#N)S(=O)(=O)c2ccccc2)cc1OC	inconclusive: 4.47 µM [activator, single point]
CCN(CC)S(=O)(=O)c1ccc(O)c(C(=O)OCC(=O)Nc2ccc(OC(F)(F)F)cc2)c1	inactive
COc1cc2c(cc1OC)-c1cc(=Nc3c(C)cc(C)cc3C)n(C)c(=O)n1CC2	inconclusive: 25.1 µM [inhibitor, partial curve] and inconclusive: 7.08 µM [inhibitor, partial curve]
O=C(O)CC1(CC(=O)Nc2ccc(Br)cc2)CCCCC1	inconclusive: 7.94 µM [activator, partial curve]
COc1ccc(Nc2nc(C(=O)N3CCc4cc(OC)c(OC)cc4C3)cs2)cc1	inconclusive: 14.1 µM [inhibitor, partial curve]
CCN(CC)CCn1c(-c2ccccc2)nc2c(NCCO)nc(C)nc21	inactive
CCn1c(O)c(N=NC(=O)c2cccc(S(=O)(=O)N3CCCCC3)c2)c2ccccc21	inconclusive: 15.8 µM [inhibitor, partial curve]
CC1=CC(=O)C2C(C)(C)CCC[C@@]2(C)[C@@]1(O)CCc1ccoc1 (stereo not given in full)	inactive
O=C(CSc1nc2ccc([N+](=O)[O-])cc2[nH]1)c1ccc(Cl)cc1	inconclusive: 28.2 µM [inhibitor, single point]
COC(=O)/C=C\c1cc(O)ccc1O	inactive
C=CCc1cccc(/C=C/c2cc(=O)c3ccccc3[nH]2)c1O	inconclusive: 35.5 µM [inhibitor, single point]
Cc1cc(=O)oc2cc(O)ccc12	inactive
OCCCNc1cc(-c2ccnc(Nc3cccc(Cl)c3)n2)ccn1	inconclusive: 39.8 µM [inhibitor, single point]
Cc1ccc2c(c1)C1C=CCC1C(C(=O)O)N2 (stereo not given)	inactive
O=C(NNc1c2ccccc2nc2ccccc12)c1cc2ccccc2cc1O	inconclusive: 17.8 µM [inhibitor, partial curve]
O=C1c2cccc3c(O)ccc(c23)C(=O)N1Cc1ccco1	inactive

SMILES	Potency
CC(C)N1CCN(Cc2ccc(-c3ccccc3Cl)o2)CC1CCO (stereo not given)	inconclusive: 25.1 µM [inhibitor, single point]
CN1/C(=C/C(=O)c2ccc(Cl)cc2)Sc2cc3c(cc21)OCO3	inconclusive: 1.12 µM [activator, full curve, poor fit]
CC(NCC(O)COCCC12CC3CC(CC(C3)C1)C2)c1ccccc1 (stereo not given)	inconclusive: 39.8 µM [inhibitor, single point]
Cc1nn(C)cc1S(=O)(=O)N1CCN(Cc2ccc(F)cc2Cl)CC1	inactive
O=C(/C=C/c1cc2ccccc2o1)c1ccccc1O	inconclusive: 15.8 µM [inhibitor, partial curve]
S=C(NCc1cccs1)Nc1ccc(Br)cc1Cl	inconclusive: 39.8 µM [inhibitor, single point]
COc1ccc(-c2csc(Nc3ccc(S(=O)(=O)Nc4cc(C)on4)cc3)n2)cc1C	inconclusive: 25.1 µM [inhibitor, single point]
CN(C)CCCN(C(=O)c1ccc2c(c1)CCCC2)c1nc2ccc(Cl)cc2s1	active: 20 µM
COc1cc2c(C#N)c(N3CCCC3)nc(N)c2c(N)n1	inconclusive: 3.98 µM [activator, partial curve, poor fit]
Cc1cccc(N=N/C(=C\O)C(=O)c2ccc(Br)cc2)c1	inconclusive: 35.5 µM [inhibitor, partial curve]
COc1ccc(C(CNc2ccc(S(=O)(=O)N3CCCC3)cc2[N+](=O)[O-])N2CCCC2)cc1 (stereo not given)	inconclusive: 39.8 µM [inhibitor, single point]
COc1ccc(Cc2n[nH]c(=S)n2C)cc1Br	inconclusive: 2.51 µM [activator, partial curve, poor fit]
CC[n+]1c(/C=C2\Sc3ccccc3N2C)ccc2cccc(C)c21	inconclusive: 31.6 µM [inhibitor, partial curve]
Nc1ncn([C@@H]2O[C@H](CO)[C@@H](O)[C@H]2O)c(=O)n1	inactive
COc1ncc2nc(CCc3ccccc3)c(=O)n(CCC#N)c2n1	inactive
C/C(=N\N=c1/scc(C)n1Cc1ccco1)c1cccc([N+](=O)[O-])c1	inconclusive: 15.8 µM [inhibitor, partial curve]
CC(=O)NC(c1cccs1)c1cc([N+](=O)[O-])c2cccnc2c1O (stereo not given)	inactive
Cc1cccc2c1N1C(=O)c3c(C(=O)O)cccc3C1CC2C (stereo not given)	inactive
COc1ncc2nc(C)c(=O)n(CCC#N)c2n1	inactive
CN(C)/C=C\C(=C/C(=O)C(F)(F)F)Nc1ccccc1Oc1ccccc1	inconclusive: 11.2 µM [activator, partial curve, poor fit]
CCOc1ccc(C2=NNC(c3cccs3)=Nc3ccc(OC)cc32)cc1OCC	inconclusive: 10 µM [inhibitor, partial curve]
CCOC(=O)C1(Cc2ccccc2)CCN(Cc2cnc(N3CCOCC3)s2)CC1	inconclusive: 31.6 µM [inhibitor, single point]
